Over roughly 33,000 sequences, “E-score (-0.5 to 0.5)” has its median near -0.035; the highest 2% begin near 0.34. The list shows a part of the results.
What follows are sequences tested against T1, Mot3 (UniProt P54785) (assay: PBM E-score (8-mer binding enrichment) (E-score (-0.5 to 0.5)); higher = stronger / more preferred TF binding; most listed sequences are background and not binding sites). Settings: protein concentration: 200 nM; construct: GST-full length.
T1 sequence: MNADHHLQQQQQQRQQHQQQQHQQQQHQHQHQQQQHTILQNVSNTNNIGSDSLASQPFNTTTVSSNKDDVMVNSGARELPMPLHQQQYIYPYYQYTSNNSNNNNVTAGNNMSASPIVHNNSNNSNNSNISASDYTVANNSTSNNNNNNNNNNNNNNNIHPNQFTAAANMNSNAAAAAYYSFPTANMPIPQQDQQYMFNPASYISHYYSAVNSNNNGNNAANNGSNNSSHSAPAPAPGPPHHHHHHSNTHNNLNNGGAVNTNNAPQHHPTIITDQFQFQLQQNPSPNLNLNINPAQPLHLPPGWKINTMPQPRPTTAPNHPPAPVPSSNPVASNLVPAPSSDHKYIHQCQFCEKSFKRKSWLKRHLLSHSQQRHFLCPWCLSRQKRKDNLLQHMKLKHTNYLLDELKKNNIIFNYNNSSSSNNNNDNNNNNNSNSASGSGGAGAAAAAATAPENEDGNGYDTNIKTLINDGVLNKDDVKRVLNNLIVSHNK
Procedure, shortened: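 PURExpress in vitro transcription/translation supplied GST-tagged yeast transcription factors, either full-length or DNA-binding domain. Applied at about 100-200 nM to universal all-10-mer Agilent arrays double-stranded by primer extension, the bound protein was detected with fluorescent anti-GST. E-scores, modified Wilcoxon-Mann-Whitney statistics, were given by the Universal PBM Analysis Suite to ungapped eight-base words pooled with their reverse complements after masliner normalisation.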

Row | Sequence | PBM E-score
1 | TGCAGCCA | -0.192
2 | AGCCTTCA | 0.157
3 | CTAGTGAC | 0.0128
4 | CGCAGTAG | -0.179
5 | CATGAGCC | 0.137
6 | ATTGGGGA | -0.228
7 | AATCACTA | 0.057
8 | CCATAGCG | -0.285
9 | ATTGTCCG | -0.0544
10 | AATTGCCA | -0.0186
11 | GGTACAAA | 0.202
12 | CTCGATGA | -0.0886
13 | AACACCTC | -0.105
14 | CGCATCGA | -0.0785
15 | AGCCAGCT | -0.0592
16 | TATCACCA | 0.0489
17 | GTGTCAAC | 0.206
18 | AGAATTTG | -0.172
19 | AAAGCTGG | -0.162
20 | GCTCCGTA | -0.141
21 | CATTCAAA | 0.0266
22 | AGCTCCCG | -0.195
23 | ATATATAC | 0.238
24 | GTAGGAAA | 0.429
25 | TATATCCA | 0.00446

Row | Sequence | PBM E-score
26 | AACCAGGG | 0.18
27 | ATGCAACA | 0.0771
28 | CACAGTCG | -0.0968
29 | AATTGTCT | 0.0727
30 | AGGGTTGG | -0.145
31 | CAATTTTA | 0.0555
32 | TACCGATA | -0.225
33 | AACCCAGC | -0.152
34 | GCCTATAA | 0.33
35 | GCGGACAC | -0.3
36 | CAACCCCG | -0.231
37 | CGAACTCC | 0.111
38 | GCCTCAGA | -0.0614
39 | GCGGCGTA | -0.0503
40 | AACCCCAC | 0.0413
41 | GACTCCCC | -0.294
42 | AACCCCAT | 0.0292
43 | CAAGCACG | 0.204
44 | TCTTCCCA | -0.0496
45 | CGCTAGCG | -0.207
46 | CAGGGGTA | -0.221
47 | AACCTTGT | 0.082
48 | ACCGTCAT | -0.0683
49 | ACCACTAG | -0.0578
50 | CCTCGACG | -0.0624

Row | Sequence | PBM E-score
51 | CGGCCCAG | -0.454
52 | CCCGTCCG | -0.261
53 | CCAATCCA | -0.104
54 | ACTCCAGC | -0.108
55 | AAGATGCT | 0.00596
56 | GCGACAGC | -0.234
57 | AAGAATGA | 0.101
58 | CGTTTCGA | -0.0289
59 | ACGTGGCC | -0.065
60 | ATTAATTA | 0.106
61 | AGGAGTGA | -0.073
62 | AAACTACC | 0.0689
63 | CAACCCGA | -0.0767
64 | ACATTGTG | 0.172
65 | ACATGGCA | 0.247
66 | AGAGGGGG | -0.353
67 | AAACACGG | 0.243
68 | ACGCGAAG | 0.226
69 | AAGTATAA | 0.146
70 | ACGGCACC | 0.0514
71 | GCCCACAA | -0.198
72 | ACTCCTTA | -0.0478
73 | CATTCCTA | -0.129
74 | TCGAATCA | -0.0585
75 | GTGCCGCA | -0.251

Row | Sequence | PBM E-score
76 | TCATTCCA | -0.229
77 | AGCTCGAA | -0.151
78 | TCGAGGCA | 0.346
79 | CAATGGCG | -0.303
80 | AATACTGC | -0.195
81 | CAGCCGGA | -0.0444
82 | AGCCTAGA | -0.0156
83 | TCCCTCCA | -0.143
84 | ACGCCGCA | -0.105
85 | CAGCGGTA | -0.0214
86 | CATAGAAG | 0.0831
87 | AATTGACA | 0.13
88 | CGTAGGGC | -0.0174
89 | AAAAGCGC | 0.0608
90 | GAAATGGC | -0.174
91 | AACTAACC | 0.204
92 | ATTGTCAA | 0.0347
93 | ACCTAAGT | 0.0986
94 | CGAGAGCC | -0.186
95 | CAGTTACC | 0.00165
96 | GATAAATC | -0.169
97 | ACGGGACT | -0.273
98 | AACAATAC | 0.155
99 | TCACCACA | -0.0873
100 | ATTACAAA | 0.347

Row | Sequence | PBM E-score
101 | CAGGTATC | 0.056
102 | CATTTTTC | 0.0768
103 | GTCTCATA | -0.0702
104 | TGGAACAA | 0.136
105 | CTTCGCAC | 0.0624
106 | AGTTACGG | -0.241
107 | AATGCGCA | -0.0819
108 | ATGTATTG | 0.303
109 | AATTCCTG | 0.0532
110 | CAGACAGC | -0.191
111 | GTGCGTAA | 0.356
112 | ACAAGAGC | 0.0847
113 | GGTTTGTA | 0.221
114 | ACTAATAC | 0.151
115 | CCATGTAC | 0.327
116 | CGGCCTTC | -0.235
117 | AAATCGAG | -0.0527
118 | ACCAGGGG | -0.19
119 | GCCGTAAC | -0.146
120 | CTGTTAAA | 0.238
121 | CGCTGCAC | -0.217
122 | AAGTCTTC | -0.0674
123 | AAATACGC | 0.22
124 | ATTCAGCG | -0.114
125 | AGACCCTA | -0.0984

Row | Sequence | PBM E-score
126 | CAAGCCAC | -0.225
127 | ATACGAAA | 0.0852
128 | CCGCCCGA | -0.225
129 | AGATGTTC | -0.186
130 | ACAATTCG | 0.0496
131 | GACCCACA | -0.102
132 | AAATCCGC | -0.151
133 | CGGCACAA | -0.0749
134 | CGTGAGTA | -0.0014
135 | AAGCTCGC | -0.0921
136 | GACCGCCA | -0.181
137 | AACTTGGG | 0.0096
138 | CGTACTTA | 0.163
139 | CACCACCC | -0.0332
140 | CAACCGCA | -0.12
141 | ATGATCTC | -0.0785
142 | AGCCAATA | 0.0294
143 | CACTCTGG | -0.0358
144 | CCATGGGG | -0.183
145 | CACTCCCC | -0.133
146 | GGAATCTA | -0.0104
147 | CGAGGTGA | -0.113
148 | GAGAAGGC | 0.258
149 | AAATAGTC | -0.199
150 | CCGTCTTC | -0.315

Row | Sequence | PBM E-score
151 | AATTGCCT | 0.472
152 | ACGGAGAA | -0.116
153 | AGACCCAT | -0.22
154 | CTACCTGA | 0.0134
155 | CACCAAAG | 0.0478
156 | CTCCCTGA | -0.339
157 | AAGCTAAC | -0.00069
158 | ATATTGAG | 0.0205
159 | GCAGCAAC | -0.0944
160 | TATGTCCA | 0.0838
161 | ATGAACCC | -0.0628
162 | CACTTTGC | 0.205
163 | CGGGAGCA | -0.358
164 | GGTGCAGA | -0.163
165 | AACTTCCA | -0.119
166 | AATCCATT | -0.0107
167 | AGGCCGAT | -0.106
168 | AGCGCTGG | -0.0215
169 | CAACTAGG | 0.153
170 | GATGCAGC | -0.0695
171 | ATACATCC | 0.201
172 | CAATTTCC | 0.0755
173 | ATCACTCC | -0.148
174 | CACGCCCC | -0.0366
175 | ATACGCAG | 0.223

Row | Sequence | PBM E-score
176 | TGGTTTAA | 0.167
177 | ATCTCGTG | -0.127
178 | ATTCCCCC | -0.341
179 | CAATCTTC | -0.0132
180 | GCCAACAC | 0.154
181 | GAGCTGGA | -0.205
182 | GTGCAGTA | 0.0488
183 | ACGCTTCT | -0.0128
184 | CCCGTACA | 0.0344
185 | CAAATATC | 0.068
186 | GTACCAGA | -0.0243
187 | GATAGCTA | -0.0415
188 | CGACTGAC | -0.228
189 | ACACTAGT | -0.0367
190 | AATGCCCC | -0.198
191 | CGATTCGA | 0.076
192 | CCGCGCAA | -0.176
193 | AACAATGT | 0.228
194 | AACCTGTG | 0.357
195 | AATTGGGA | -0.0908
196 | TAACGCTA | 0.0901
197 | ATTTACTG | 0.0286
198 | ATGGCTTG | -0.016
199 | ATCTCTGC | -0.138
200 | AGATAGCG | -0.0829

Row | Sequence | PBM E-score
201 | AACGACCG | -0.163
202 | AGTAAATA | 0.191
203 | CTGGGCCC | -0.241
204 | CTACGAGC | -0.222
205 | CCTAGTCG | -0.0943
206 | ATATTTTC | 0.0377
207 | ACGCTGTC | 0.00765
208 | AAGGCCTC | -0.169
209 | ACTCAAGA | -0.0682
210 | CTGCACAC | 0.129
211 | CGACGCTC | -0.178
212 | GTTTGCAA | 0.195
213 | AGGTTGTC | -0.0425
214 | ATCTGAGC | 0.0325
215 | CTGAGATC | -0.132
216 | AGAAGGAC | -0.198
217 | ATTCGTTC | 0.0248
218 | GAAAACTC | 0.0378
219 | ACCAGGTG | -0.0408
